Source: ChEMBL document CHEMBL1156829
In all, about 5,400 compounds were measured (“IFI”: median about 2, highest 2% from about 22 on). Some of the results follow.

Assay: NOVARTIS: Inhibition Frequency Index (IFI) - the number of HTS assays where a compound showed > 50% inhibition/induction, expressed as a percentage of the number of assays in which the compound was tested.
Assay type: functional

Compound	IFI [%]
COc1ccccc1NC(=O)N(Cc1ccccc1)C(C)c1nc2ccccc2c(=O)n1-c1cc(C)ccc1C (stereo not given)	3.77
O=C1CCC(c2ccc(Cl)c(Cl)c2)c2ccc(O)cc21 (stereo not given)	0
N#Cc1ccccc1N1CCCCC1	4.63
CCOC(=O)c1c(C)nc2c(c1C)c(=O)oc1ccccc12	3.03
O=C(/C=C/Nc1ccccc1NS(=O)(=O)c1ccc([N+](=O)[O-])cc1)c1ccccc1	1.18
N=c1c2c(n(Cc3ccccc3)c3c1CCC3)CCC2	4.54
CC(C)N(CC(=O)Nc1cc(C(C)(C)C)nn1-c1ccc(Cl)c(Cl)c1)C(=O)c1ccc(C(F)(F)F)cc1	1.91
COC(=O)c1ccc(NC(=O)CSc2nc3cc4c(cc3cc2C#N)OCCO4)cc1	0
CN1CCN(c2ccc(Nc3ccnc4ccccc34)cc2)CC1	7.69
CCCCCN(C(=O)c1ccc2ccccc2c1)C(CC)c1nc2ccccc2c(=O)n1-c1ccccc1OC (stereo not given)	2.78
Cc1ccc(S(=O)(=O)N=C2C=C(Sc3nnc[nH]3)C(=O)c3ccccc32)cc1	25
CCOC(=O)c1cnc2ccc3c(c(C)c(C)n3C)c2c1O	0
O=C1/C(=N\c2cccc(O)c2)C(N2CCCCC2)=C(O)c2ccccc21	0
Cc1cc(Oc2ncnc(N(C)CC(=O)OC(C)(C)C)c2[N+](=O)[O-])c2nncn2n1	7.14
COC(=O)C1C(=O)C2=C(CC1C)NC(=O)CC2c1cccc(Cl)c1Cl (stereo not given)	0
CN1C(=O)N(C)C2(c3ccccc3)NN3C(=NC12c1ccccc1)SC1=C3C(=O)c2ccccc2C1=O (stereo not given)	4.44
Nc1nc(N)c2c(OCc3ccc(C(F)(F)F)cc3)cccc2n1	7.63
O=C1CN(C(=O)CCC2CCCCC2)C(c2ccc(F)cc2)c2cc(F)ccc2N1 (stereo not given)	5.88
Cc1ccc(NC(C)C(=O)Nc2ccc(C#N)cc2)cc1S(=O)(=O)N1CCCCC1 (stereo not given)	6.25
COc1cc(/C=C/C(=O)Nc2ccc3nc(N4CCN(c5ncccn5)CC4)cc(C)c3c2)cc(OC)c1OC	11.5
CC1CCN(c2ncnc3sc4c(c23)CCC(C)C4)CC1 (stereo not given)	2.35
COc1ccc(CN2CCc3nc(N4CCCCC4)sc3C2)cc1	9.72
Oc1ccc(-c2ccc3c(c2)OCO3)cc1CNC12CC3CC(CC(C3)C1)C2	1.79
COc1cccc(-c2ccc(O)c(CN3CCC(Cc4ccccc4)CC3)c2)n1	1.92
O=C(Nc1ccc(OC(F)(F)F)cc1)c1cnn2c1NC(c1cccs1)CC2C(F)(F)F (stereo not given)	0

Compound	IFI [%]
CC(C)(C)c1ccc(C(=O)C[n+]2cc(-c3ccccc3)n3c2CCC3)cc1	5
O=C(c1cc2n(n1)C(C(F)(F)F)CC(c1ccc3c(c1)OCO3)N2)N1CCN(C(c2ccccc2)c2ccccc2)CC1 (stereo not given)	1.16
Cc1cc(N2CCN(C)CC2)nc2ccc(NC(=O)c3ccc(Br)o3)cc12	0
CCC(O)CN(c1ccccc1)c1ccccc1 (stereo not given)	1.83
CCCCCCCn1c(=N)n(CC(O)c2ccc(Cl)c(Cl)c2)c2ccccc21 (stereo not given)	9.26
CN(C)Cc1c(O)ccc2oc(Cc3ccccc3)cc12	0.73
CCOC(=O)C1=C(C)N=c2sc(=Cc3cccc(OCc4cccc5ccccc45)c3)c(=O)n2C1c1ccc(OC)cc1OC (stereo not given)	0
COc1ccc(N2C(N)=NC(N)=NC2(C)C)cc1	4.54
COc1cc(/C=C\C(=O)Nc2c3c(nn2-c2ccc(F)cc2)CSC3)cc(OC)c1OC	4.71
Oc1ccc(-c2ccnc3cc(Cl)ccc23)cc1CNCC1(O)CCCCC1	2.59
CCCn1nc(NS(C)(=O)=O)c2cc3cccc(C)c3nc21	0
CCOC(=O)C1=C(C)NC2=C(C(=O)C(C(=O)OCC)C(c3ccccc3OC)C2)C1c1cc(OC)c(OC)c(OC)c1 (stereo not given)	4.65
COc1cc(NC(C)CCCN(Cc2ccc(Cl)cc2)C(=O)Nc2ccc(Br)cc2)c2ncccc2c1 (stereo not given)	3.74
Oc1ccc(-c2ccccc2)cc1CNCCc1ccc(F)cc1	3.42
CC(=O)N1c2ccc(C)cc2C(C)(c2ccccc2)CC1(C)C (stereo not given)	0
CCCSCCCNC(=O)c1oc2c(c1C)-c1[nH]ncc1CC2	0
O=C(CSc1nc(-c2ccccc2Cl)ns1)Nc1ccc2c(c1)OCCO2	0
CC1(C)C2CCC1(C)C(OCC[N+]1(Cc3ccccc3)CCCC1)C2 (stereo not given)	9.62
O=C1c2ccc3c4c(ccc(c24)C(=O)N1CCCCO)C(=O)N(CCCCO)C3=O	11.3
COc1cc(OC)c(Br)c(-n2c(C(C)N(CCC(C)C)C(=O)c3ccccc3C)nc3ccccc3c2=O)c1 (stereo not given)	2.8
COc1cccc(-c2ccc(O)c(CN(C)CCc3ccc(OC)c(OC)c3)c2)n1	2.56
CC(Nc1cc(C)ccn1)=C(C#N)C#N	7.69
Cc1ccnc(NC(c2cccc(Cl)c2Cl)c2ccc3cccnc3c2O)c1 (stereo not given)	7.69
O=C(NC(Cc1ccccc1)c1nnc(SCc2ccc(F)cc2)n1-c1ccc(Cl)cc1Cl)C1CCCCC1 (stereo not given)	2.08
COc1ccc(-c2ccc3c(N)c(C(=O)NCCc4ccccc4)sc3n2)cc1OC	7.27

Compound	IFI [%]
COc1cc(/C=C2/SC(=Nc3ccccc3)NC2=O)ccc1OC(=O)c1ccccc1	1.14
COc1cccc(-c2cncc(-c3cncc(OC)c3)n2)c1	0
Cc1cc(C)n(-c2ccc(NC(=O)C3CCN(Cc4cnc(C)s4)CC3)cc2)n1	0
COc1ccc(C(NC(=O)COc2ccccc2)c2cc(Cl)c3cccnc3c2O)cc1OC (stereo not given)	12.5
C=Cc1cc2ccccc2c2cc3c(cc12)C[N+](C)(C)C3	0
CCn1ccnc1CC1COc2ccccc2O1 (stereo not given)	1.18
COc1ccc2nc(C)cc(Nc3cccc(Cl)c3)c2c1	3.26
COc1ccc(C(c2ccc(N(C)C)cc2)c2ccc(N(C)C)cc2)cc1	13.6
CCN(CC)CCN1C(=O)c2ccccc2NC1c1ccc(Cl)cc1 (stereo not given)	3.66
Cc1ccc(-n2c(C)cc(/C=C3\SC(=Nc4ccc(Cl)cc4)NC3=O)c2C)cc1	5.81
CC[n+]1c(/C=C/c2ccc(C)cc2)ccc2ccccc21	11.4
CCCCCCCCCC(=O)N(C)CCCNc1ccnc2cc(Cl)ccc12	3.7
CC1CN(C2CC(=O)N(c3ccccc3)C2=O)CC(C)O1 (stereo not given)	0
Cc1ccc(OCC(=O)Nc2cccc(C(=O)O)c2)c(Br)c1	7.69
CON(C)C(=O)c1cccc2ccccc12	3.25
CCCCN(CC(=O)Nc1cc(C(C)(C)C)nn1-c1ccc(Cl)cc1)C(=O)c1ccc(OC)cc1	1.92
O=C(COC(c1cccs1)c1cccnc1Cl)N1CCN(C(=O)Nc2ccccc2)CC1 (stereo not given)	0.971
O=C(c1cc2cc(Br)ccc2o1)N1CCc2c([nH]c3ccccc23)C1c1ccc(Cl)cc1 (stereo not given)	0
OC1(c2ccc(Br)cc2)CCN(C2CCN(Cc3ccccc3)CC2)CC1	1.57
COc1ccc(OC)c(C2CC(=O)N3CN(Cc4ccccc4)CSC3=C2C#N)c1 (stereo not given)	0
O=C1C2C(C(=O)N1c1ccccc1F)C1(c3ccccc3)C(=O)C2(c2ccccc2)C(c2ccccc2)=C1c1ccccc1 (stereo not given)	0
COc1cc(NC(C)CCCN(Cc2ccc(N(C)C)cc2)S(=O)(=O)c2c(C)cc(C)cc2C)c2ncccc2c1 (stereo not given)	2.75
CCCCCCN(C(=O)c1ccc2ccccc2c1)C(CC)c1nc2ccccc2c(=O)n1-c1ccc(F)cc1 (stereo not given)	2.94
CCN1CCN(c2cc(C)c3cc(NC(=O)/C=C/c4cc(OC)ccc4OC)ccc3n2)CC1	8.33
O=C1N(Cc2cc3ccccc3s2)CC2CN(Cc3ccccc3)CCN12 (stereo not given)	4.29

Compound	IFI [%]
O=C(NCc1ccccc1)c1cccc2c(Br)cccc12	3.92
Cc1ccc(-c2cc(-c3ccccc3)c(C#N)c(SCC(O)C[S+]([O-])Cc3ccccc3)n2)cc1 (stereo not given)	0
Cc1ccc2nc(C)cc(NCCN(C)C)c2c1	4.71
CCC(=O)Nc1ccc2nc(SCC(=O)Nc3ccc(C(C)=O)cc3)sc2c1	2.33
N#C/C(=C\c1ccc(Sc2ccccc2)o1)c1nc2ccccc2[nH]1	6.74
CCCSc1nc(N)c(NC(=O)c2ccco2)c(=O)[nH]1	0
CCCCc1ccc(C(=O)N(CCc2ccccc2)C(CC)c2nc3ccccc3c(=O)n2-c2ccccc2OC)cc1 (stereo not given)	5.77
COc1ccc(C2=C(Nc3ccc(C)c(C)c3)c3ccccc3C2=O)cc1	0
COc1cc(OC)cc(-n2c(=O)c3sccc3n(CC(=O)c3ccc(F)cc3)c2=O)c1	1.96
CN(CCCNc1ccnc2cc(Cl)ccc12)S(=O)(=O)c1cc(Cl)ccc1Cl	7.41
COc1ccc(C2(Cc3ccccc3)NC(=O)NC2=O)cc1 (stereo not given)	0
CC(=O)N(C1=C(N2CCOCC2)C(=O)c2ccccc2C1=O)c1ccc(F)c(F)c1	0
O=C(NCCCCNc1ccnc2cc(Cl)ccc12)c1cccc(Br)c1	0.952
O=C(Nc1ccc(NC(=O)Nc2ccc(C3=NCCN3)cc2)cc1)Nc1ccc(C2=NCCN2)cc1	0.909
COc1ccc(OC)c(C=NNC(=O)Cc2cc(O)n[nH]2)c1	0
COC(=O)c1c(S(=O)(=O)N2CCN(C)CC2)sc2c1CCN(CCCc1ccccc1)C2	1.96
CC1=C2C(=O)c3ccccc3C2NC(=O)N1 (stereo not given)	1.32
CN(CCCNc1nc2ccccc2c2nc(-c3cccnc3)nn12)Cc1ccccc1	0
Cc1ccc(-c2ccc(C#N)c(OCC(=O)NCCc3ccccc3)n2)c(C)c1	0
CCCN(CCC)[P+](CCC)(c1ccc([P+](CCC)(N(CCC)CCC)N(CCC)CCC)cc1)N(CCC)CCC	3.7
Clc1ccc(CNCCCn2ccnc2)cc1Cl	0.935
CCOC(=O)c1[nH]c2ccccc2c1N=NN(C)C	1.36
Cc1cc(NC(=O)c2ccc(S(=O)(=O)N(Cc3ccccc3)C(C)C)cc2)no1	2.78
Nc1nc(Nc2cccc(Cl)c2)n[nH]1	1.07
Oc1ccc(-c2cccnc2)cc1CNCC1CC2C=CC1C21CC1 (stereo not given)	1.7
